Laboratory results: paper PMC5700166
The entries are a selection whose mix differs from that of the whole data set. The list includes weakly bound sequences.

How the values were obtained:
Assay in all cases: protein-binding microarray (PBM)
Conditions in all cases: PBM: ~300 nM protein, 6 mM HEPES pH 7.8, 80 mM KCl, 0.5 mM EDTA, 0.5 mM EGTA, 6% glycerol, 35 ng/ul poly-dIdC, 1% milk, 1 h, room temperature; Ap Aiptasia and Nv Nematostella (sea anemones) / Co Capsaspora / Aq Amphimedon (sponge) / Dm Drosophila / Hu human; RHD is the Rel homology domain; high values mean tight binding; most listed sequences are background and not binding sites; double strand, one strand shown
[1] = molecular target: T1, GST-Ap-NF-kB RHD (UniProt A0A913YAJ5)
T1 sequence: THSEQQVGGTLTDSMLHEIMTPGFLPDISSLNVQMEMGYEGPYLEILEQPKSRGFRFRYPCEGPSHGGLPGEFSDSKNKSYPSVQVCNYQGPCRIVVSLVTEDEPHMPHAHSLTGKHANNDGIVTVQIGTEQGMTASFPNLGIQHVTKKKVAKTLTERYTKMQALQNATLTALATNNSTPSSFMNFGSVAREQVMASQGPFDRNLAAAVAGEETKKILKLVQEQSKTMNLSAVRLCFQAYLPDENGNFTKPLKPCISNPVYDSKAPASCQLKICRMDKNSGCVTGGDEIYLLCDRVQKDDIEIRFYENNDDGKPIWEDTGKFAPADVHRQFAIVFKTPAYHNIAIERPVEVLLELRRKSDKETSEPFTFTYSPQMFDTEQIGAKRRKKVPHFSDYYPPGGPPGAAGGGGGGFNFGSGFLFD

[2] = molecular target: T2, GST-Nv-NF-kB (Cys allele) (UniProt E5G601)
T2 sequence: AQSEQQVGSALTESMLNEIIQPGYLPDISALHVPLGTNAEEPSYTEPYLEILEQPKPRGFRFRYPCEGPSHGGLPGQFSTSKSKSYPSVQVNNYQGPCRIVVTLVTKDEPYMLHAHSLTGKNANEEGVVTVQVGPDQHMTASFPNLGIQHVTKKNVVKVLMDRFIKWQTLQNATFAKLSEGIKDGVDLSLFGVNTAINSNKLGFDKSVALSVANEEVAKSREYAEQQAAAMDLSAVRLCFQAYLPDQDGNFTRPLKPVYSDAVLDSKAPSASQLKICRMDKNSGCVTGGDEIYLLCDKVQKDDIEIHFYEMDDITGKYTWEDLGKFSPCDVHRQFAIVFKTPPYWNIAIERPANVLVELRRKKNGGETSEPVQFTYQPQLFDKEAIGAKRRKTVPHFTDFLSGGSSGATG

[3] = molecular target: T3, GST-Co-NF-kB (UniProt F1ARL5)
T3 sequence: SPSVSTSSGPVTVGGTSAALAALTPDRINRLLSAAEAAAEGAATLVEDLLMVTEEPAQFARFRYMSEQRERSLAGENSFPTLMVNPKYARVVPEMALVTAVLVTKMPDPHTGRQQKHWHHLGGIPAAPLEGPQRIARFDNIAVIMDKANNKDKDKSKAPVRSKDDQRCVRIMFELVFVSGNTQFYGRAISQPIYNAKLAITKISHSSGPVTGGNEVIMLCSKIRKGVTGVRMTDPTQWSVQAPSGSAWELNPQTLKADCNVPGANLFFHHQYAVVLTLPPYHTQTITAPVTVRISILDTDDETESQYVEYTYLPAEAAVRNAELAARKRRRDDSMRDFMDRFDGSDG

[4] = molecular target: T4, GST-Dm-Relish (UniProt Q94527)
T4 sequence: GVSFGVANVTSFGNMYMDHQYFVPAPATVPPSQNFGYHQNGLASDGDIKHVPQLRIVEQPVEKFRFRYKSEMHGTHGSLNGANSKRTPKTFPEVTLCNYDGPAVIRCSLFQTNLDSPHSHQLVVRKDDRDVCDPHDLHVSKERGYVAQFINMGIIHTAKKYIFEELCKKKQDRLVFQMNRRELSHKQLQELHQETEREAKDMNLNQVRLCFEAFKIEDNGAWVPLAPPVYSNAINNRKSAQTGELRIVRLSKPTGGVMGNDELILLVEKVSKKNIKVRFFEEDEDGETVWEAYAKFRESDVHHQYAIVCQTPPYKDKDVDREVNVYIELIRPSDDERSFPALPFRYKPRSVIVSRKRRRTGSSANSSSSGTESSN

[5] = molecular target: T5, GST-Aq-NF-kB (UniProt A9Y5G7)
T5 sequence: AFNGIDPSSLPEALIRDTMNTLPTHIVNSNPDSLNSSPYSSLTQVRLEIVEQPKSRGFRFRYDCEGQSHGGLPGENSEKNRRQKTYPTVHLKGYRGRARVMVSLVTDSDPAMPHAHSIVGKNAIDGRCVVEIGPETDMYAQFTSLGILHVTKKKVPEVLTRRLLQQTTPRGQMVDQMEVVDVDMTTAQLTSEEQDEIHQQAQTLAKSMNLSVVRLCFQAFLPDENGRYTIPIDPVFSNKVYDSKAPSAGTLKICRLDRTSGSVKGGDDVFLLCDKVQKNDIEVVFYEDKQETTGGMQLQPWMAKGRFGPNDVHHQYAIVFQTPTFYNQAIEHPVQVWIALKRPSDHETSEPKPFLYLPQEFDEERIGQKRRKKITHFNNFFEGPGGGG

Row | Sequence | binding signal [1] [z-score] | binding signal [2] [z-score] | binding signal [3] [z-score] | binding signal [4] [z-score] | binding signal [5] [z-score]
1 | CCGATTAACATCAGTTGTCTACGTGATGTTAATCGGGTCTTGATTCGCTTGACGCTGCTG | -0.818 | -0.323 | -0.608 | -0.34 | -0.431
2 | CCGATTAACATCACCGAGTTAGTTGATGTTAATCGGGTCTTGATTCGCTTGACGCTGCTG | 0.331 | 1.15 | 0.423 | 0.524 | -0.0985
3 | CCGATTAACATCAATGAATTCGATGATGTTAATCGGGTCTTGATTCGCTTGACGCTGCTG | -0.59 | -0.909 | -0.404 | -0.292 | -0.476
4 | CCGATTAACATCATAAGTGGCGTTGATGTTAATCGGGTCTTGATTCGCTTGACGCTGCTG | -0.092 | -0.554 | -0.381 | -0.0624 | -0.264
5 | CCGATTAACATCAAGATCGCGAATGATGTTAATCGGGTCTTGATTCGCTTGACGCTGCTG | -0.812 | -0.245 | -1.21 | -0.843 | -0.539
6 | CCGATTAACATCAACCGGAGCAATGATGTTAATCGGGTCTTGATTCGCTTGACGCTGCTG | -0.676 | -0.903 | -0.183 | -0.511 | -0.166
7 | CCGATTAACATCACATGATCCTATGATGTTAATCGGGTCTTGATTCGCTTGACGCTGCTG | -0.173 | -0.265 | -0.433 | -0.295 | -0.436
8 | CCGATTAACATCAGACACTTTTCTGATGTTAATCGGGTCTTGATTCGCTTGACGCTGCTG | -0.434 | -0.0483 | -0.0552 | 0.174 | -0.168
9 | CCGATTAACATCAAAGCACTTTTTGATGTTAATCGGGTCTTGATTCGCTTGACGCTGCTG | -0.593 | 0.127 | -0.513 | 0.824 | -0.315
10 | CCGATTAACATCACTTTATAATCTGATGTTAATCGGGTCTTGATTCGCTTGACGCTGCTG | -0.663 | -0.404 | 0.239 | -0.0775 | -0.33
11 | CCGATTAACATCATATCCTTTTGTGATGTTAATCGGGTCTTGATTCGCTTGACGCTGCTG | -0.237 | 0.197 | 0.835 | 0.276 | -0.172
12 | CCGATTAACATCATCGGCCTTAATGATGTTAATCGGGTCTTGATTCGCTTGACGCTGCTG | -0.525 | 0.22 | -1.56 | -0.74 | -0.361
13 | CCGATTAACATCAACCTTGCTACTGATGTTAATCGGGTCTTGATTCGCTTGACGCTGCTG | 0.134 | -0.00414 | 0.0967 | -0.543 | -0.304
14 | CCGATTAACATCACAGACCCAGCTGATGTTAATCGGGTCTTGATTCGCTTGACGCTGCTG | 0.351 | -0.378 | -0.739 | 0.0222 | -0.277
